Assay results taken from PubChem BioAssay AID652106 (National Center for Advancing Translational Sciences (NCATS), 2013).
In all, about 370,000 compounds went through this assay and about 500 (0.14%) were called active. Inconclusive results, whose numbers are uncertain, are shown with a selection of clear calls. Calls follow the shape of the dose curve; as a rule, active = well fitted activation curve with a large enough effect; inconclusive = small, poorly fitted or top-dose-only effect; inactive = no such curve, though single readings can be large or run the other way. No potency is given beside an inconclusive call; the fits are too rough.

Assay: qHTS of alpha-syn Inhibitors; also: nearly all actives have a fitted effect of over 65% in size; as to growth rescue (activation): % of control where 0% means no effect
Conditions: Yeast expressing alpha-synuclein, BacTiter-Glo, 24 h; Potency: growth rescue unless noted; growth rescue (activation): at 46.1 µM (top of the series) unless noted
Outline: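 Galactose-induced alpha-syn yeast (OD600=0.02, raffinose-pregrown) + pinned cpd, 24 hr, 30 deg C; growth by BacTiter-Glo luminescence. Growth restoration scores as activation.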
Potency is read from the fitted curve at half-maximal effect; tags tell the direction and shape of the fitted curve.

Compound	Potency	growth rescue (activation)
Oc1cccc(-c2csc(C(O)(c3ccccc3)C(F)(F)F)n2)c1 (stereo not given)	inconclusive [activator, single point]	–
C=CCSc1nc(N)c(NC(=O)c2ccco2)c(=O)[nH]1	inconclusive [activator, single point]	–
O=C(Cc1cccs1)NNC(=S)NC(=O)c1ccco1	inconclusive [activator, single point]	–
COC(=O)[C@@]1(C(C)C)N=C(c2cc(OC)c(OC)c(OC)c2)[C@]2(O1)C(=O)Nc1ccc(F)cc12	inconclusive [activator, single point]	–
CCCCNC(=O)C1C(c2ccc(C(F)(F)F)cc2)=Nc2ccccc2N1C(=O)C1CCN(C(C)=O)CC1 (stereo not given)	inconclusive [activator, single point]	–
Cc1cc(=O)oc2c3c(ccc12)OCN(Cc1ccccc1Cl)C3	inconclusive [activator, single point]	–
CCNc1c(NC(=O)COc2ccc(Cl)cc2)c(=O)oc2ccccc12	inconclusive [activator, single point]	–
O=C(CSc1n[nH]c(-c2ccccn2)n1)Nc1ccccc1F	inconclusive [activator, single point]	–
COc1ccc(Cl)cc1NC(=O)COC(=O)c1ccc(Cl)nc1	inconclusive [activator, single point]	–
CC(C)(C)c1ccc(C(=O)CCC(=O)NCc2ccccc2)cc1	inconclusive [activator, single point]	–
O=C(Cc1cccc2ccccc12)OCn1nnc2ccccc2c1=O	inconclusive [activator, single point]	–
CC(C)(C)C(=O)NC1=NN(c2c(Cl)cc(Cl)cc2Cl)C(=O)C1	inconclusive [activator, single point]	–
O=C(NCc1ccco1)c1cnn2c(C(F)(F)F)cc(-c3ccco3)nc12	inconclusive [activator, single point]	–
CC1(C(=O)Nc2cccc(Br)c2)Cc2ccccc2C(=O)O1 (stereo not given)	inconclusive [activator, single point]	–
COc1ccc(C(C)(O)c2nc(-c3ccccc3)cs2)cc1 (stereo not given)	inconclusive [activator, partial curve]	–
COc1cccc(-c2csc(N3CCN(C(=O)Nc4ccccc4OC)CC3)n2)c1	–	inactive: 0%
CCN(CC)CCn1c2ccccc2c(=O)c2c(O)ccc(O)c21	inconclusive [activator, single point]	–
COc1cc2c(oc(=O)c3cc(C)cc(OC)c32)c2c(C3OC(C)C(O)C(C)(O)C3O)ccc(O)c12 (stereo not given)	active: 6.31 µM	–
COc1cccc(C(=O)OCn2nnc3ccccc3c2=O)c1	inconclusive [activator, single point]	–
COc1ccccc1C(=O)Nc1cccc(NC(C)=O)c1	–	inactive: 3.92%
O=C(NCc1cc(Cl)cc(Cl)c1)c1ccc2nc(COCCO)[nH]c2c1	inconclusive [activator, single point]	–
Cc1ccc(Cl)cc1N1CCN(C(=O)C2(S(=O)(=O)c3ccc(Cl)cc3)CC2)CC1	–	inactive: 8.33%
Cc1cn[nH]c1	inconclusive [activator, single point]	–
O=C1CS(=O)(=O)C2(C(=O)N(Cc3ccccc3)c3ccccc32)N1c1ccccc1 (stereo not given)	inconclusive [activator, single point]	–

Compound	Potency	growth rescue (activation)
Cc1cc(=O)n2c3c(c4c(cc13)c(CN(C)C)cc(=O)n4C)OC2	inconclusive [activator, single point]	–
Cc1ccc(S(=O)(=O)c2ccc([N+](=O)[O-])o2)cc1	–	inconclusive: -72.6% [activator]
COc1ccc(-c2cc(NC(C)=O)c3ncc(-c4ccccc4)n3c2)c(OC)c1	inconclusive [activator, single point]	–
CS(=O)(=O)N1CCN(c2ccc([N+](=O)[O-])c3cccnc23)CC1	–	inactive: 11.7%
COc1ccc(OC)c(NC(=O)Nc2ccc(O)c3ccccc23)c1	–	inactive: -2.51%
Cc1cc(NC(=O)CO/N=C/c2ccc3c(c2)OCO3)ccc1Br	inconclusive [activator, single point]	–
O=C(C[n+]1cccc(I)c1)c1ccc(F)cc1	inconclusive [activator, single point]	–
CCCCN(CC)CCNC(=O)CNC(=O)Cn1ccc2ccccc2c1=O	–	inactive: 4.2%
O=S(=O)(NC1CC1)c1ccc(S(=O)(=O)N2CCc3ccccc32)cc1	inconclusive [activator, single point]	–
NC1=C(Br)C(=O)c2ncccc2C1=O	–	inactive: -5.84%
COC(=O)c1ccc(CN2C(=O)c3ccccc3C2=O)cc1	inconclusive [activator, single point]	–
Cc1csc(NC(=O)c2sccc2C)n1	–	inactive: -36%
CC(C)(C)OC(=O)C[C@@H]1C/C=C\C[C@@H](CC(=O)N[C@H](CO)Cc2ccccc2)C(=O)N2CCC[C@@H]2COC1=O	inconclusive [activator, single point]	–
Cc1cc(=O)oc2cc(OCC(=O)N3CCCC3)ccc12	–	inactive: -12.2%
Cc1cccc(N2CCN(CCCNc3ncnc4onc(-c5ccc(Cl)cc5)c34)CC2C)c1 (stereo not given)	–	inactive: 2.05%
CCC(C)NC(=O)c1ccc2nc(-c3ccco3)c(-c3ccco3)nc2c1 (stereo not given)	–	inactive: 2.5%
NC(=O)c1sc2nc3c(c(-c4ccco4)c2c1N)CCCC3	inconclusive [activator, single point]	–
COc1ccc(NC(=O)C[C@H]2C(=O)N(CCc3ccccc3)C[C@@H]2C)cc1	inconclusive [activator, single point]	–
C[C@@H](NCCCc1cccc(C(F)(F)F)c1)c1cccc2ccccc12	–	inactive: -16.3%
CN(Cc1ccc(Cl)c(Cl)c1)C(C(=O)NCc1ccccc1)c1ccco1 (stereo not given)	inconclusive [activator, single point]	–
CCCCN1C(=O)C(=O)NC[C@@H]1C(C)CC (stereo not given in full)	inconclusive [activator, single point]	–
COC(=O)C(N)CCCCN (stereo not given)	–	inactive: -8.71%
COc1ccc(-c2cc(=O)oc3cc(OC(C)C(=O)Nc4ccc(CN5CCOCC5)cc4)ccc23)cc1 (stereo not given)	inconclusive [activator, single point]	–
Nc1ccc(Oc2cc(N)cc(Oc3ccccc3)c2)cc1	inconclusive [activator, single point]	–

Compound	Potency	growth rescue (activation)
CN(Cc1ccc(Cl)cc1Cl)C(=O)c1cc(=O)c2ccccc2o1	inconclusive [activator, partial curve]	–
CC1(C(=O)NCc2ccc(F)c(F)c2)Cc2c(-c3cccc(C(F)(F)F)c3)ccnc2O1 (stereo not given)	inconclusive [activator, single point]	–
COc1cc(C(CC(=O)Nc2ccc(Br)cn2)N2Cc3ccccc3C2=O)cc(OC)c1OC (stereo not given)	inconclusive [activator, single point]	–
CC(C)C(=O)Nc1nc2c(ncn2[C@H]2CC(O)[C@@H](CO)O2)c(=O)[nH]1 (stereo not given in full)	inconclusive [activator, single point]	–
CN(N=O)c1ccc(C=C2C=Cc3ccccc32)cc1	–	inactive: 1.4%
CN(C)c1ccc(NC(=O)CN2CCC(N3CCCCC3)CC2)cc1	–	inactive: -5.18%
N#Cc1c(Nc2ccccc2Cl)s[nH]c1=O	inconclusive [activator, single point]	–
COC(=O)c1nnn(-c2nonc2N)c1CSc1nc2ccccc2o1	inconclusive [activator, full curve, poor fit]	–
CCC(=O)NC(Nc1cc(C)cc(C)n1)(C(F)(F)F)C(F)(F)F	inconclusive [activator, single point]	–
COc1ccc(-c2nnc(SCC(=O)N3CCc4ccccc4C3)o2)cc1	inconclusive [activator, single point]	–
CCOC(=O)N1CCC(NC(=O)CS(=O)(=O)Cc2nc(-c3ccccc3C)oc2C)CC1	inconclusive [activator, single point]	–
CC1(C(=O)NCc2cccs2)CCN1CCc1ccccc1 (stereo not given)	–	inactive: -0.507%
COc1ccccc1N1CCN(CC(=O)N2CCCC2)CC1	–	inactive: -1.22%
CCCc1cc(=O)oc2cc(C)cc(OCC(=O)O)c12	–	inactive: 2.41%
Cc1ccc(C)c(N2CCN(S(=O)(=O)c3ccc4c(c3)C(C)(C)C(=O)N4C)CC2)c1	inconclusive [activator, single point]	–
COc1ccc(C2(C(=O)c3ccccc3)C(=O)c3ccccc3C2=O)cc1	–	inactive: -1.63%
C[C@]12c3[nH]c4cc(-c5ccco5)ccc4c3CCN1C(=O)[C@@H](CC(=O)NCCc1ccccn1)C[C@@H]2C(=O)N1CCOCC1	inconclusive [activator, single point]	–
C=C(C)COc1ccc(-c2[nH]ncc2-c2ccccc2OC)c(O)c1	inconclusive [activator, partial curve]	–
O=C(O)CCCCCCCC(=O)O	inactive	–
NCCCn1c(C(=O)c2cc(Cl)c(N)c(Cl)c2)c2ccc([N+](=O)[O-])cc2[n+]1[O-]	inconclusive [activator, partial curve, poor fit]	–
NC(=S)NN=C1CSSC1	active: 2.82 µM	–
CCOC(=O)N1CCN(C(=O)c2ccc3[nH]c(C)c(C)c3c2)CC1	inconclusive [activator, single point]	–
